Assay results taken from the supplement of paper PMC11417369.
This is one part of the list.

test system: PF3D7_0420300 AP2 domain 1 (GST-tagged); experiment: gcPBM binding intensity (ln(normalized median fluorescence intensity)); higher = stronger DNA binding
Summary of the method: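 DNA-binding domains from P. falciparum, fused to GST and produced in E. coli, were put on an Agilent 4 × 180k double-stranded probe array for 1 h in 1× PBS holding 1% milk, 0.2 mg/ml BSA, 0.5% salmon testes DNA and 0.03% Triton X-100. Probes were primer-extended, 36 bp long and drawn from intergenic genomic regions, with negative controls included. After Alexa488 anti-GST antibody detection and a 488 nm scan, binding intensity was set as the highest Masliner-normalised natural-log median intensity across replicate spots of either probe orientation.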

| Sequence | gcPBM binding intensity (ln) |
| --- | --- |
| TAAAATAGAAATATATGTACATATATATATGTATAT [XGTACX_site4134] | 9.28 |
| CGATATTCTAAGGATAGTACATAATAAAATAGAGTA [XGTACX_site4224] | 9.28 |
| ATTTATATTTTTTAATGTACATTTATATGTATACAA [XGTACX_site4555] | 9.25 |
| AAAAAACGCACTCGTACACACATATTTTCTTTCTAA [CACACA_site3089] | 9.57 |
| ATATAATCAACTGCAAAGGTTTAAAAGGAAAAAATA [CACACA_negctrl_site989] | 9.34 |
| TTAATTACACAAAAAAGTACTTGATATTGTTTATTA [XGTACX_site3449] | 9.13 |
| AATATTTACCAGAAAATAAAAATATGTATATATATA [CACACA_negctrl_site351] | 9.32 |
| TTTTTATTCAACAAAAATATCAAACATAATTATAAA [CACACA_negctrl_site616] | 8.93 |
| AATATTTATATTTACACACACATAATACATATATGT [CACACA_site33] | 9.97 |
| TTCCTTTAACCCTGCACACATACATACATTTATATG [CACACA_site3953] | 9.77 |
| ATTTTTATGTCTTTCTATAAATCGAAAATATACATA [CACACA_negctrl_site477] | 9.02 |
| ATATACAACTAAAGAACACACATCATTGTTCATTGG [CACACA_site3681] | 9.57 |
| CAAATACACGGACACACACACACAAAAAAAAAAAAA [CACACA_site6385] | 10.1 |
| AAATTATTGTAAAATAGTACAGTGAAACATAAAGTT [XGTACX_site589] | 9.55 |
| TAAATACAAGTAAAAAGTACAGAAAAATTATATATA [XGTACX_site1758] | 9.41 |
| TTTATTTGGACATATACACACTTAAATATGTTTATT [CACACA_site6021] | 9.32 |
| TTTATTTTGTTTTCTTGTACATAAATAATTACATAT [XGTACX_site4227] | 9.44 |
| TATAAAAAATTCAATACACACCATATATAAATATAT [CACACA_site6060] | 9.56 |
| AAGAGAAATGGGCACACACACACATATTATAGATAT [CACACA_site6828] | 10.2 |
| TGATTCACTATAGTAGTGCATATTATATATATATAT [GTGCAC_site9975] | 9.2 |
| TATAATAATTCATAATGTACTTTTATCAAAAAAGTA [XGTACX_site6868] | 8.87 |
| ATTCTACACGCACATACACACATATAAATATAAATA [CACACA_site7582] | 9.78 |

| Sequence | gcPBM binding intensity (ln) |
| --- | --- |
| ATTTATGTTATTGTATGTACACAATATAATGTTATT [XGTACX_site5657] | 9.4 |
| AAAAAAAAATATATATATATATATATATAATAAAAA [CACACA_negctrl_site639] | 8.99 |
| AAAAAAAAAAAATGTGCACACGCGTACAGACAAAAA [CACACA_site2005] | 9.91 |
| TAAAAAGTACATTATTCATGGCCTATTACATTTTTT [GTGCAC_negctrl_site282] | 9.19 |
| ATATTTTACATATTTGCACACATATATTTAAATACA [CACACA_site4628] | 9.63 |
| ACACAAAAATAGTTTTTTATATTGTTAACCTTATAT [XGTACX_negctrl_site123] | 9.37 |
| ATAATATATATGAAATGTACATAAATTTAATGCGAC [XGTACX_site5394] | 9.76 |
| ATGTGCACATGTAGAAGTACTTTTTCTTAAAATACT [XGTACX_site8341] | 9.09 |
| TATGTTTTATATAAGATGCACTTTTGTTATGCTTCA | 9.15 |
| CTTTTTTTTTTGTATTGTACTTTATTTTTACATCGT [XGTACX_site2918] | 9.65 |
| ATTCTAATTTTATGAAACGATTATTTTGAATTCATT [XGTACX_negctrl_site578] | 9.13 |
| ATTTTTAATTTTTTCACACATATATTTAAAATAAAA [CACACA_site4799] | 9.08 |
| GATTACCTTTTTTTTTTTTTTTTTTTTTTTTTTTTC [CACACA_negctrl_site147] | 9.14 |
| ATAAAAAAAAATATATGTACATATATAAATTGATAT [XGTACX_site7409] | 9.35 |
| TATATTTTTTAAAAAAGTACAAAGTAATTATTGATT [XGTACX_site2420] | 9.06 |
| TGAAATGAAAGAACAGCACACATATATATTATATAT [CACACA_site8613] | 9.54 |
| GTAGTACATTCTAGAATACACACCTATATATATATA [CACACA_site522] | 9.44 |
| ATATGAAAAACTTCATGTACTTATTATAAAATATAA [XGTACX_site2725] | 8.93 |
| CGTCCAAAATATCCTTCACACACGAACAGTTTCATT [CACACA_site2729] | 9.63 |
| CTATAATATTATAACAGTACATAATATTATATATAT [XGTACX_site1414] | 9.24 |
| TTTAAATAAAAATGGAGTACTCTAAAAAAAAAAAAA [XGTACX_site1233] | 9.04 |
| ATATATATATATAATACACACATAAATGAATATATA [CACACA_site316] | 9.59 |

| Sequence | gcPBM binding intensity (ln) |
| --- | --- |
| TTTATATAATATTCTACACACCAACAACAAACATAT [CACACA_site4478] | 9.76 |
| GCATTGATCAAACATACACACATGGTTAATAAAAAT [CACACA_site2085] | 9.43 |
| GTGATTTCTATGAATTGTACTTAAATATAGTTATAT [XGTACX_site231] | 9.27 |
| TTATAGACATATATAGGTACACATATTTTCAATCCC [XGTACX_site8230] | 9.27 |
| ATTTATTAATCATATACACACATATATTTGTATTTA [CACACA_site1336] | 9.58 |
| TATTTTTTTAAAATAGGTACACAATCAAACATTTAT [XGTACX_site8785] | 9.08 |
| ACCTCATAATATTTAACACACAAAATTATCTGTATG [CACACA_site5015] | 9.64 |
| AATATATATATAAATAGTACATATAAAGAGAATTTT [XGTACX_site3168] | 9.44 |
| CAGAAATATTCTTATACACACTGTTCTTATATTCCT [CACACA_site4318] | 9.51 |
| ATTAAAACAAAATGTACACACATATAATTTAATGAC [CACACA_site878] | 9.58 |
| TTTATCTTTTTTTGTTGTACAGATGTTTATATTTTA [XGTACX_site4065] | 9.53 |
| AATAACATTATTTTATGTACACATGAAAAATAAAAT [XGTACX_site4657] | 9.26 |
| TGTAATAAACTACTTTTTTTTTTTTTTTTTTTTTTT [CACACA_negctrl_site1021] | 9.22 |
| AATATCAAAATAACATGTACATGTTATATTTTATTT [XGTACX_site5891] | 9.22 |
| TGATATTTCATCATAGTGCAATATGGCATATAAATA [GTGCAC_site9433] | 9.14 |
| GTATATATCTCAGAGCATAATAGTATAATTCGGTCA [CACACA_negctrl_site876] | 9.24 |
| AATTATTTTAGAAACACACAAATTAGAAAAAACATA [CACACA_site7673] | 9.62 |
| AAAAAATATAAAAAAACACACAAAAAAAAAAAAAAA [CACACA_site1382] | 9.4 |
| TTCTTAAAAAATCAAACACACATATATAAATACATA [CACACA_site5301] | 9.52 |
| AAAGACGTTTATAAATGTACATACACTTTAAAAGTT [XGTACX_site8753] | 9.08 |
| CCCCATTTATCTTAAGCATGCCATGGTTTTAGATAT [TGCATGCA_site24] | 9.43 |
| ATAAAAAAAAAAAATACACACATATATATATATATA [CACACA_site1709] | 9.41 |

| Sequence | gcPBM binding intensity (ln) |
| --- | --- |
| TTATTTATTTATTATAGTTCACTTGAAAATACAAGA [CACACA_negctrl_site1480] | 8.84 |
| CATATATACAGTAACACACACAAAAAAATATGAATA [CACACA_site3996] | 10 |
| AATAGTGTCATAAAAACTATTATCATATAATGTGAA [CACACA_negctrl_site1578] | 9.14 |
| TAATTTATAACACGCGCACACATATATATATAGTAA [CACACA_site121] | 9.57 |
| TTGTTGTGTATTATCGTGCACATAATATAAAAGATT | 9.19 |
| TTTCTTTTTAACTCTTACATAATAGGTGGTAGAAGG [TGCATGCA_negctrl_site176] | 8.79 |
| ATACTAAATGAACACACACACATATATATATATAAT [CACACA_site4232] | 10.1 |
| TATAACTTTTTTATTACACACCTATGTAATATTATA [CACACA_site944] | 9.37 |
| AACAGACATAGAAACACACATACATACATACATACA [CACACA_site2479] | 9.41 |
| ATGTTTTATATTTTTTTTTTGTTTGCTTGTTTCCTC [CACACA_negctrl_site870] | 9.48 |
| AAGGGAAATATTGAAACACACACGAACCCACGTATT [CACACA_site252] | 9.73 |
| TTCTTAAATGTAAATGTATATGTATTAAAAAGAGAA [TGCATGCA_negctrl_site597] | 9.1 |
| TACTGTGTTTTGGTTGTACACACGCTACATTATATA [CACACA_site8863] | 9.78 |
| TTATAATATTAATGTGCACACAATTAAAATATTATA [CACACA_site2046] | 9.23 |
| AGGATATAAATATTCACACACACATGGAGATATATA [CACACA_site6317] | 9.98 |
| TACATTAACGGATTATTTCTCAATACAACATCATTT [CACACA_negctrl_site981] | 9.15 |
| GTTTGTATGTCCAAATGTACATATGATTTTATGAAA [XGTACX_site6595] | 9.2 |
| ACCTAATTCAAATACAGTACATATACAATATATATA [XGTACX_site2779] | 9.32 |
| AAAAAATATTGAAGTACACACATTATAAACTTTTTT [CACACA_site5029] | 9.5 |
| AAAATTAAAAATTACTGTACGTATTAGAGAATAAAT [XGTACX_site2567] | 9.31 |
| TATATTGTATAAAAATGTACATGCAATAAATTTAGT [XGTACX_site5621] | 9.42 |
| AAAATATTAATTAATACATGCATATATATATATATA [TGCATGCA_site585] | 9.28 |
